In PubChem BioAssay AID1768 (National Center for Advancing Translational Sciences (NCATS), 2009):
About 620 (0.23%) of roughly 270,000 compounds were called active. Inconclusive means that the source gave no clear call. Such entries were picked first, then a sample of the others. Calls come from the whole dose curve; as a rule, active = well fitted inhibition curve with a large enough effect in the polarisation, with a control signal flat (not every such curve was filed as active); inconclusive = small, poorly fitted or top-dose-only effect, or effect the other way, or a change in a side signal; inactive = no such curve, though single readings can be large or run the other way; the % refers to the polarisation. A potency beside an inconclusive call is a rough fit, not a confirmed value. A note “side channel” means that the fit belongs to a control or component signal, not to the main read-out.

target: Menin (Homo sapiens) (UniProt O00255); experiment: qHTS Assay for Inhibitors Targeting the Menin-MLL Interaction in MLL Related Leukemias: Competition With Texas Red Labeled MLL-derived Mutant Peptide; settings: fluorescence polarization; FP activity change, negative = inhibition: at 61.6 µM (top of the series); for FP activity change, negative = inhibition: % of control where 0% means no effect
Chain of UniProt O00255 (O00255 whole entry, looked up): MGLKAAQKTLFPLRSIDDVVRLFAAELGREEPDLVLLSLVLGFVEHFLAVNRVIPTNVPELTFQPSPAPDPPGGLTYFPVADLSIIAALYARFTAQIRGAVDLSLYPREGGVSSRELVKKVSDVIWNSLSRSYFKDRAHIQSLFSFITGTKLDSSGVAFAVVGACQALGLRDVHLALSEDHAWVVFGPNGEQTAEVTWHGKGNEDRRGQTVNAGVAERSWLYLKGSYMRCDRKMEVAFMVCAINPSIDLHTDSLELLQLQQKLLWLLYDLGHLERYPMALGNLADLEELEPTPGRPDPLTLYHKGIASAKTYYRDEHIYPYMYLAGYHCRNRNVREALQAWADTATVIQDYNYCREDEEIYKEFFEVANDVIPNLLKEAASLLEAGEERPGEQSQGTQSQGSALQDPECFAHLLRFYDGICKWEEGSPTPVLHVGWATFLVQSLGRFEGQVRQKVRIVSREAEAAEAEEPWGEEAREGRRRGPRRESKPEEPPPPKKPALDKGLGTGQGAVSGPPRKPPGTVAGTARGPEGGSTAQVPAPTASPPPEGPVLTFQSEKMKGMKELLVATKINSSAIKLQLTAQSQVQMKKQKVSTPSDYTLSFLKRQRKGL
Potency is the fitted concentration of half-maximal effect; tags give direction and shape of the fitted curve or compound fluorescence and quenching.

Potency, inconclusive:
CC(C)c1ccc(NC(=O)COC(=O)/C=C/c2cccc(Br)c2)cc1 14.1 µM [inhibitor, partial curve], Cc1cc(C)c2c(CC(=O)Nc3nccs3)coc2c1 12.6 µM [quencher, side channel, partial curve], Cc1ccc(NC(=O)Nc2cccc([N+](=O)[O-])c2)cc1F 14.1 µM [quencher, side channel, partial curve], Cc1cccc(NC(=O)CN2C(=O)/C(=C3\SC(=S)N(CC4CCCO4)C3=O)c3ccccc32)c1 (stereo not given) 10 µM [quencher, side channel, partial curve], COc1ccc(NC(=O)CSc2nnc(-c3cnccn3)n2C)cc1OC 3.16 µM [inhibitor, partial curve], CSCCC(NS(=O)(=O)c1ccc(Cl)cc1)C(=O)OCC(=O)c1c(C)[nH]c2ccccc12 (stereo not given) 3.55 µM [quencher, side channel, single point], O=C1C(Cl)=C(NC2CCc3ccccc32)C(=O)c2ncccc21 (stereo not given) 11.2 µM [quencher, side channel, partial curve], Cc1ccc(C(=O)/C=C/c2cc(Br)cc(Br)c2O)o1 12.6 µM [fluorescent, side channel, partial curve], O=C(CN1C2CCCC1CC(NC(=O)c1ccccc1)C2)Nc1ccccc1 (stereo not given) 28.2 µM [inhibitor, partial curve], COc1ccc(Br)cc1CN(C)C(=O)c1cnc(C)cn1 12.6 µM [inhibitor, single point], Cc1ccc(NC(=O)CN2CCC(NC(=O)c3cccc(F)c3)CC2)cc1C 35.5 µM [fluorescent, side channel, single point], C=CCSc1nc(-c2ccc3c(c2)OCO3)cc(C(F)(F)F)c1C#N 28.2 µM [quencher, side channel, single point], O=C(CNc1ccc(Br)cc1)c1ccc(O)cc1 39.8 µM [quencher, single point], Cc1nnc(SC(C(=O)Nc2ccc(Cl)c([N+](=O)[O-])c2)c2ccccc2)[nH]c1=O (stereo not given) 20 µM [quencher, side channel, partial curve], NS(=O)(=O)c1ccc(CCNC(=O)c2ccc3nc4ccc(Cl)cc4c(=O)n3c2)cc1 31.6 µM [inhibitor, single point], Cc1c(Cc2ccc3c(c2)OCO3)sc(NC(=O)c2ccccc2)c1C(N)=O 20 µM [quencher, side channel, partial curve], O=c1c2c3c(sc2ncn1-n1cccc1)CCCCC3 39.8 µM [inhibitor, single point], CSc1ccc(S(=O)(=O)N(CC(=O)NN=C2CCN(C)CC2)c2ccc(C)cc2)cc1 25.1 µM [fluorescent, side channel, single point], O=S(=O)(Nc1cc2nc3ccccc3nc2n1Cc1ccccc1)c1ccc(Cl)cc1 25.1 µM [quencher, side channel, single point], Nc1cc([N+](=O)[O-])ccc1Nc1ccccc1 22.4 µM [quencher, side channel, partial curve], O=C(CCn1c(=O)[nH]c2ccccc2c1=O)NCCCN1CCN(c2cccc(Cl)c2)CC1 5.62 µM [inhibitor, full curve], CC(C)(C)OC(=O)NCCCC1=CC2=CC(=O)C(C)(OC(=O)c3ccc(Cl)nc3)C(=O)C2=CO1 (stereo not given) 44.7 µM [inhibitor, single point], CCOC(=O)c1ccc(-c2c(-c3cc(OC)c(OC)c(OC)c3)noc2C)cc1F 3.55 µM [inhibitor, single point], O=[N+]([O-])c1ccc(-c2ccc(/C=N/n3cnnc3)o2)c(Br)c1 39.8 µM [quencher, partial curve, poor fit], COc1ccc(-c2csc(NC(=O)c3ccoc3C)n2)cc1 25.1 µM [quencher, side channel, single point], COc1ccc(O)c(C2=Nc3ccccc3N=C(c3ccco3)C2)c1 25.1 µM [quencher, side channel, partial curve], CCn1nnnc1SCC(=O)NNC(=O)C1CCCCC1 12.6 µM [inhibitor, partial curve, poor fit], O=C(COn1nnc2ccc(Cl)cc21)Nc1ccc(F)cc1 12.6 µM [quencher, side channel, partial curve], COc1cc(/C=C2\SC(=N)N(c3ccc4c(c3)OCO4)C2=O)cc(OC)c1O 35.5 µM [quencher, side channel, single point], C=CCc1cc(Cl)ccc1OCCCn1ccnc1 28.2 µM [inhibitor, single point], CN1CCCC1CCOC(C)(c1ccccc1)c1ccc(Cl)cc1 (stereo not given) 12.6 µM [fluorescent, side channel, partial curve], O=[N+]([O-])c1cccc(S(=O)(=O)N2CCN(S(=O)(=O)N3CCCCCC3)CC2)c1 22.4 µM [quencher, side channel, partial curve], COc1ccc(Nc2nc(-c3ccccc3)cs2)cc1 10 µM [quencher, side channel, partial curve], CC(C)C(=O)NC(c1cccc([N+](=O)[O-])c1)c1ccc2cccnc2c1O (stereo not given) 35.5 µM [quencher, side channel, single point], S=C(Nc1cccc(Br)c1)c1ccccc1 3.55 µM [quencher, side channel, partial curve], COc1ccc(CN(C(=O)CN2C(=O)COc3ccccc32)C2CCCC2)c(OC)c1 28.2 µM [fluorescent, side channel, single point], COC(=O)Cc1c(C(=O)OC)nnn1-c1cccc(C(F)(F)F)c1 6.31 µM [inhibitor, single point], Cc1ccc(C(=O)CSc2nnc(-c3c[nH]c4ccccc34)o2)cc1 25.1 µM [quencher, side channel, single point], CCCOc1ccccc1C(=O)NCCCC(=O)O 3.55 µM [quencher, side channel, single point], O=C(CSc1nc(-c2ccccc2)cc(C(F)(F)F)n1)NCc1ccco1 14.1 µM [inhibitor, partial curve], CN(C)c1nc(-c2cccnc2)nc(-c2ccc(Cl)cc2)c1C#N 39.8 µM [inhibitor, partial curve], O=C(Nc1cccc(-n2cnnn2)c1)c1ccc(Cl)cc1Cl 39.8 µM [fluorescent, side channel, single point], CSc1ccccc1NC(=O)c1cc(-c2cccs2)on1 25.1 µM [inhibitor, single point], Nc1ccc(Br)cc1-c1nc2ccccc2[nH]c1=O 31.6 µM [inhibitor, single point], CC(C)c1ccc(S(=O)(=O)c2n[nH]n3c2nc(=O)c2ccccc23)cc1 39.8 µM [quencher, side channel, single point], O=C(Cc1ccccc1)Nc1nnc(-c2ccco2)s1 5.01 µM [inhibitor, full curve, poor fit], COc1ccc(C(CC(=O)Nc2ncccc2C)N2Cc3ccccc3C2=O)cc1 (stereo not given) 31.6 µM [inhibitor, single point], Cc1ccc(CNC(=O)CN2CCN(Cc3ccc(Cl)cc3)C2=O)cc1 17.8 µM [fluorescent, side channel, partial curve], COC(=O)c1cccc(NC(=O)Nc2ccccc2OC)c1 15.8 µM [quencher, side channel, partial curve]

FP activity change, negative = inhibition, inactive:
CCN(CC)CCCN1C(=O)C(O)=C(C(=O)c2cc3cccc(OC)c3o2)C1c1ccncc1 (stereo not given) 20.2%, O=c1c2ccccc2sn1-c1nccs1 -18.6%, CN1CCN(C2=C(NS(=O)(=O)c3ccccc3)C(=O)c3ccccc3C2=O)CC1 -0.884%, CCCOC(=O)CSC1=C(C#N)C(c2ccccc2OC)C(C#N)C(=O)N1 (stereo not given) -6.77%, Cc1cc(=O)oc2cc(OCC(=O)NCCCN3CCOCC3)ccc12 -3.38%, CCCCNc1c2c3c(cccc3n(C)c1=O)C(=O)c1ccccc1-2 -16.1%, C=CCN1c2ccccc2[C@]23C[C@@H](C(=O)OC)N(C(=O)COCc4ccccc4)C2=NC(C(=O)OC)=C(C(=O)OC)[C@H]13 -0.667% [at 11.7 µM], CCCCC/C=C\C/C=C\C/C=C\C/C=C\CCCCCC(=O)NC(C)C(=O)O (stereo not given) -1.86%, NC(=O)COc1ccc(NC(=O)OCc2ccccc2)cc1 15.2%, NC(=O)CCN1CCN(C(=O)c2ccc3nc(Cc4cccc(Cl)c4)oc3c2)CC1 3.99%, CO/N=C(/C(=O)N[C@H]1C(=O)N2C(C(=O)O)=C(COC(C)=O)CSC12)c1csc(N)n1 (stereo not given in full) -3.41%
